# Some of the results follow.
# Columns and labels:
# Test in all cases: glycan array binding signal (z-score within array); higher = stronger binding
# Conditions in all cases: glycan notation: IUPAC condensed, linker removed
# Gal6S(b1-4)Glc6S = target: Gal6S(b1-4)Glc6S
# How it was run: (§1)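 The Consortium for Functional Glycomics database supplied 3228 glycan arrays, of which those lacking an available protein sequence were dropped. The binding signal, a within-array Z-score, was averaged across arrays of the same protein sequence and across linkers. Negative scores can be read as non-binding.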
# Gal6S(b1-4)GlcNAc = target: Gal6S(b1-4)GlcNAc
# How it was run: as §1
# Gal6S(b1-4)GlcNAc6S = target: Gal6S(b1-4)GlcNAc6S
# How it was run: as §1
# GalNAc(a1-3)Gal = target: GalNAc(a1-3)Gal
# How it was run: as §1
# GalNAc(a1-3)GalNAc = target: GalNAc(a1-3)GalNAc
# How it was run: as §1
# [1] = target: GalNAc(a1-3)GalNAc(b1-3)Gal(a1-4)Gal(b1-4)Glc
# How it was run: as §1
# [2] = target: GalNAc(a1-3)GalNAc(b1-3)Gal(a1-4)Gal(b1-4)GlcNAc
# How it was run: as §1
# GalNAc(b1-3)Gal = target: GalNAc(b1-3)Gal
# How it was run: as §1
# [3] = target: GalNAc(b1-3)Gal(a1-4)Gal(b1-4)GlcNAc
# How it was run: as §1
# [4] = target: GalNAc(b1-3)Gal(a1-4)Gal(b1-4)GlcNAc(b1-3)Gal(b1-4)Glc
# How it was run: as §1
# [5] = target: GalNAc(b1-3)Gal(a1-6)Gal(b1-4)Glc
# How it was run: as §1
# GalNAc(b1-3)GalNAc = target: GalNAc(b1-3)GalNAc
# How it was run: as §1
# GalNAc(b1-3)GlcNAc = target: GalNAc(b1-3)GlcNAc
# How it was run: as §1
# GalNAc(b1-4)Gal(b1-4)Glc = target: GalNAc(b1-4)Gal(b1-4)Glc
# How it was run: as §1
# GalNAc(b1-4)GlcNAc = target: GalNAc(b1-4)GlcNAc
# How it was run: as §1
# [6] = target: GalNAc(b1-4)GlcNAc(b1-2)Man
# How it was run: as §1
# [7] = target: GalNAc(b1-4)GlcNAc(b1-2)Man(a1-3)[GalNAc(b1-4)GlcNAc(b1-2)Man(a1-6)]Man(b1-4)GlcNAc(b1-4)GlcNAc
# How it was run: as §1
# [8] = target: GalNAc(b1-4)GlcNAc(b1-3)GalNAc(b1-4)GlcNAc
# How it was run: as §1
# GalNAc(b1-4)GlcNAc6S = target: GalNAc(b1-4)GlcNAc6S
# How it was run: as §1
# GalNAc(b1-6)GalNAc = target: GalNAc(b1-6)GalNAc
# How it was run: as §1
# GalNAc3S(b1-4)GlcNAc = target: GalNAc3S(b1-4)GlcNAc
# How it was run: as §1
# GalNAc3S(b1-4)GlcNAc3S = target: GalNAc3S(b1-4)GlcNAc3S
# How it was run: as §1
# [9] = target: GalNAc3S(b1-4)[Fuc(a1-3)]GlcNAc
# How it was run: as §1
# GalNAc4S6S(b1-4)GlcNAc = target: GalNAc4S6S(b1-4)GlcNAc
# How it was run: as §1
# GalNAc6S(b1-4)GlcNAc = target: GalNAc6S(b1-4)GlcNAc
# How it was run: as §1
# Glc(a1-4)Glc = target: Glc(a1-4)Glc
# How it was run: as §1
# [10] = target: Glc(a1-4)Glc(a1-4)Glc(a1-4)Glc
# How it was run: as §1
# Glc(a1-6)Glc(a1-6)Glc = target: Glc(a1-6)Glc(a1-6)Glc
# How it was run: as §1
# [11] = target: Glc(a1-6)Glc(a1-6)Glc(a1-6)Glc
# How it was run: as §1
# Glc(b1-4)Glc = target: Glc(b1-4)Glc
# How it was run: as §1
# Glc(b1-6)Glc = target: Glc(b1-6)Glc
# How it was run: as §1
# GlcA(b1-3)Gal = target: GlcA(b1-3)Gal
# How it was run: as §1
# GlcA(b1-3)GlcNAc = target: GlcA(b1-3)GlcNAc
# How it was run: as §1
# GlcA(b1-6)Gal = target: GlcA(b1-6)Gal
# How it was run: as §1
# [12] = target: GlcA3S(b1-3)Gal(b1-4)GlcNAc(b1-2)Man
# How it was run: as §1
# [13] = target: GlcA3S(b1-3)Gal(b1-4)GlcNAc(b1-3)Gal(b1-4)Glc
# How it was run: as §1
# [14] = target: GlcNAc(a1-3)Gal(b1-4)GlcNAc
# How it was run: as §1
# [15] = target: GlcNAc(a1-4)Gal(b1-3)GlcNAc
# How it was run: as §1
# [16] = target: GlcNAc(a1-4)Gal(b1-4)GalNAc
# How it was run: as §1
# [17] = target: GlcNAc(a1-4)Gal(b1-4)GlcNAc
# How it was run: as §1
# [18] = target: GlcNAc(a1-4)Gal(b1-4)GlcNAc(b1-3)Gal(b1-4)Glc
# How it was run: as §1
# [19] = target: GlcNAc(a1-4)Gal(b1-4)GlcNAc(b1-3)Gal(b1-4)GlcNAc
# How it was run: as §1
# [20] = target: GlcNAc(a1-4)Gal(b1-4)GlcNAc(b1-3)Gal(b1-4)GlcNAc(b1-3)Gal(b1-4)GlcNAc
# How it was run: as §1
# [21] = target: GlcNAc(a1-4)Gal(b1-4)GlcNAc(b1-3)Gal(b1-4)[Fuc(a1-3)]GlcNAc(b1-3)Gal(b1-4)[Fuc(a1-3)]GlcNAc
# How it was run: as §1
# [22] = target: GlcNAc(a1-6)Gal(b1-4)GlcNAc
# How it was run: as §1
binder,measurement,setting,value
rCnSL-proB (Clitocybe nebularis) (protein) PTFSPIFALLAFLPFGTLASLLPQTQLVFRINPNLPGPNDVFVGYRGTNNVVGAIYERDGIKDTPMNNGADAELGPGSYITDDLFTAQIFASGSAGNNPGTTATVCKIYADGVQWRGAPKGYLPVLYFGNGQAAEQTRQTYLQGLDIPGTAIRFANLAKTPNQGPTAPRQMVVPSGGLQTLLKASCFPANHAALPQVLSYFNVRAALPPGWNIRTGPEFPNWTN,glycan array binding signal (z-score),Gal6S(b1-4)Glc6S,-0.411
same,glycan array binding signal (z-score),Gal6S(b1-4)GlcNAc,-0.518
same,glycan array binding signal (z-score),Gal6S(b1-4)GlcNAc6S,0.042
same,glycan array binding signal (z-score),GalNAc(a1-3)Gal,-0.537
same,glycan array binding signal (z-score),GalNAc(a1-3)GalNAc,-0.287
same,glycan array binding signal (z-score),[1],0.348
same,glycan array binding signal (z-score),[2],-0.694
same,glycan array binding signal (z-score),GalNAc(b1-3)Gal,-0.441
same,glycan array binding signal (z-score),[3],-0.449
same,glycan array binding signal (z-score),[4],-0.255
same,glycan array binding signal (z-score),[5],-0.531
same,glycan array binding signal (z-score),GalNAc(b1-3)GalNAc,-0.883
same,glycan array binding signal (z-score),GalNAc(b1-3)GlcNAc,-0.26
same,glycan array binding signal (z-score),GalNAc(b1-4)Gal(b1-4)Glc,-0.165
same,glycan array binding signal (z-score),GalNAc(b1-4)GlcNAc,0.093
same,glycan array binding signal (z-score),[6],-0.543
same,glycan array binding signal (z-score),[7],3.38
same,glycan array binding signal (z-score),[8],-0.589
same,glycan array binding signal (z-score),GalNAc(b1-4)GlcNAc6S,-0.236
same,glycan array binding signal (z-score),GalNAc(b1-6)GalNAc,-0.354
same,glycan array binding signal (z-score),GalNAc3S(b1-4)GlcNAc,-0.48
same,glycan array binding signal (z-score),GalNAc3S(b1-4)GlcNAc3S,-0.325
same,glycan array binding signal (z-score),[9],-0.381
same,glycan array binding signal (z-score),GalNAc4S6S(b1-4)GlcNAc,-0.116
same,glycan array binding signal (z-score),GalNAc6S(b1-4)GlcNAc,-0.311
same,glycan array binding signal (z-score),Glc(a1-4)Glc,-0.245
same,glycan array binding signal (z-score),[10],-0.184
same,glycan array binding signal (z-score),Glc(a1-6)Glc(a1-6)Glc,-0.465
same,glycan array binding signal (z-score),[11],-0.248
same,glycan array binding signal (z-score),Glc(b1-4)Glc,-0.648
same,glycan array binding signal (z-score),Glc(b1-6)Glc,-0.778
same,glycan array binding signal (z-score),GlcA(b1-3)Gal,0
same,glycan array binding signal (z-score),GlcA(b1-3)GlcNAc,-0.557
same,glycan array binding signal (z-score),GlcA(b1-6)Gal,0.323
same,glycan array binding signal (z-score),[12],-0.149
same,glycan array binding signal (z-score),[13],-0.717
same,glycan array binding signal (z-score),[14],-0.652
same,glycan array binding signal (z-score),[15],-0.344
same,glycan array binding signal (z-score),[16],-0.497
same,glycan array binding signal (z-score),[17],-0.308
same,glycan array binding signal (z-score),[18],-0.686
same,glycan array binding signal (z-score),[19],-0.819
same,glycan array binding signal (z-score),[20],-0.401
same,glycan array binding signal (z-score),[21],0.803
same,glycan array binding signal (z-score),[22],-0.122

# Source: the supplement of paper PMC8728848
